# Article PMC12040169 (PLOS Biology, 2025)
# The list shows a part of the results.
# Test system: T1, C. trachomatis L2/434/Bu expressing GFP (CTL2-GFP)
# T1 construct: L2/434/Bu GFP intracellular growth in HeLa cells
# Parameters: species or system HeLa; C. trachomatis total inclusion area by high-content imaging, normalised to DMSO
# Details: total inclusion area; 28.5 h, 10 µM; inhibitor
# Outline: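 Imaging read-out: GFP inclusions and Hoechst nuclei captured by high-content imaging after fixation. Inclusion area/number = chlamydial growth; nuclei count = host cell viability. MIC calculated per earlier method.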
row,Structure (SMILES),% of control remaining
1,Cc1ccc(Nc2nc(N/N=C/c3cccc4ccccc34)nc(N3CCC(Cc4ccccc4)CC3)n2)cc1 [CBK262101],90.8733
2,Cn1cncc1CN1CCCC(c2cc3cccnc3[nH]2)C1 (centres unmarked) [CBK284948],108.307
3,CSCCc1[nH]c(SCC(=O)Nc2cccc3ccccc23)nc1C [CBK266097],122.707
4,O=C(c1cccnc1)N1CCN(Cc2ccc([N+](=O)[O-])cc2)CC1 [CBK263026],93.9517
5,COc1cc(F)cc(OC2CCNCC2)c1NC(=O)/C=C/c1cccnc1 [CBK050344T],82.5355
6,O=C(Nc1ccc(-c2ccccc2)cc1)c1cccc(S(=O)(=O)NCC2CCCO2)c1 (centres unmarked) [CBK296994],84.8369
7,NS(=O)(=O)c1ccc(C(=O)N2CCC3(CCN(C(=O)Cc4c[nH]c5ccccc45)C3)C2)cc1 (centres unmarked) [CBK131425],94.1085
8,CN(C)c1nc(N(C)C)n(C(=O)c2cccs2)n1 [CBK019805],61.8161
9,Nc1nc2n(n1)C1(CCCCC1)C1=C(CCCC1)N2 [CBK288219],127.485
10,c1ccc2sc([C@H]3CCNC3)nc2c1 [CBK289389],108.799
11,Cc1cc(C(=O)N2CCC(Cn3cncn3)(C3CCCCC3)CC2)n[nH]1 [CBK136786],108.867
12,COc1ccc(N2CCN(c3cc(-c4ccc(CCC(=O)O)cc4)ncn3)CC2)cc1OC [CBK091030],93.2912
13,COc1ccc(Sc2cccc(C(F)(F)F)n2)cc1OC [CBK093769],82.0549
14,CCOC(=O)CN1CCC(Oc2nccnc2OCCN2CCOCC2)CC1 [CBK082929],85.1055
15,Cc1ccc(C(=O)Nc2ccc3[nH]ccc3c2)cc1Cl [CBK159677],111.471
16,CCOC(=O)CNC(=S)N[C@H]1CC[C@@]2(c3cccnc3)CCN(Cc3ccccc3)[C@H]2C1 [CBK028453],63.5472
17,O=C(CSc1ncnc2c1oc1ccccc12)NCc1ccccc1 [CBK287397],81.1793
18,Cc1cc(C(=O)Nc2cccc(-c3nc4cc(Cl)ccc4o3)c2C)ccc1[N+](=O)[O-] [CBK262949],100.431
19,c1cc(-c2cnn(-c3ccc4c(c3)CCO4)n2)cs1 [CBK112861],92.4949
20,CCCc1[nH]nc(O)c1Cc1ccc(C(C)(C)C)cc1 [CBK075028],22.2937
21,O=C(O)CCCC(=O)N1N=C(c2ccccc2)CC1c1ccc2nccnc2c1 (centres unmarked) [CBK286752],108.588
22,Oc1ccc2[nH]c3c(c2c1)CCNC31CCN(CCOc2ccccc2)C1 (centres unmarked) [CBK081496],107.43
23,COc1ccc(C(=O)Nc2nc(-c3ccc(OC)cc3)cs2)cc1 [CBK287325],109.696
24,Cc1cccc(N2CCOC3(CCCC3)C2)n1 [CBK304446],64.783
25,O=C(NCc1ccc(Cl)c(Cl)c1)Nc1cccc(C(=O)O)c1 [CBK155461G],82.2687
26,CCN1CCN(C(=O)c2cnccn2)CC1 [CBK200373],113.047
27,O=C(NCc1ccccn1)/C(=N/O)c1ccccc1 [CBK288472],94.7953

row,Structure (SMILES),% of control remaining
1,CN(C)CCN(Cc1ccccc1)c1ccccc1 [CBK012223C],106.922
2,C/C(=N\c1ccccc1C(F)(F)F)c1ccncc1 [CBK021262],102.655
3,Oc1c(Br)cc(Cl)cc1/C=N/Nc1nnc2c(n1)[nH]c1ccccc12 [CBK262041],101.881
4,Cc1ccc2c(O)c(C(=O)NCc3cccs3)cnc2c1 [CBK159997],83.7489
5,Cc1cnc(C(=O)NC2(c3ccc(Cl)cc3)CCC2)cn1 [CBK282775],101.755
6,Cc1cc(C)c(NC(=O)CSc2nc(C)c(Cc3ccccc3)c(O)n2)c([N+](=O)[O-])c1 [CBK268715],108.367
7,Nc1ncc(-c2ccoc2)nc1N1CCN(CCO)CC1 [CBK063428],129.51
8,CCOC(=O)C1CCN(C(=O)c2cnn3c(C)c(Cc4cccc(Cl)c4)c(C)nc23)CC1 [CBK160305],97.0376
9,COc1ccc(-c2ccccc2NC(=O)c2cc(-n3cccn3)ccc2Cl)cc1 [CBK285634],114.715
10,COCOc1ccc(-c2ncc(OC)nc2NC(=O)c2cc(C)oc2C)cc1 [CBK145249],99.154
11,Cn1cc(N2CCCC(NC(=O)Nc3cccc(C#N)c3)C2)cn1 (centres unmarked) [CBK305179],57.7255
12,Cc1cc(C)cc(CNC(=O)N(CCCO)Cc2ccncc2)c1 [CBK304335],52.0745
13,CN1CC[C@]2(c3ccc4c(c3)nnn4C)CC[C@@H](NC(=O)Nc3cccc(C(F)(F)F)c3F)C[C@H]12 [CBK067410],103.898
14,Nc1nc(Cn2nc(-c3ccc(F)cc3)oc2=O)nc(Nc2ccc(F)cc2)n1 [CBK296742],116.252
15,CCc1ccc(-c2csc(NS(=O)(=O)c3cccc(C(=O)O)c3)n2)cc1 [CBK296726],101.333
16,CCOCCCNC(=O)c1cccc(S(=O)(=O)N2CCCC2)c1 [CBK305934],34.9638
17,CC(C(=O)Nc1c(F)cc(F)cc1OC1CCNCC1)c1ccccc1 (centres unmarked) [CBK045896T],119.683
18,CCOc1ccc(NC(=O)c2c(O)c3ccccc3n(CC)c2=O)cc1 [CBK287771],86.7708
19,O=S(=O)(NC(c1ccccc1)c1ccccc1)c1ccc(Cl)cc1 [CBK261759],98.0249
20,COc1ccc(Cl)cc1NC(=O)NCCN1CCCCC1 [CBK268169],119.703
21,CC(C)Cc1[nH]nc(O)c1-c1ccccc1 [CBK075134],99.0595
22,CC(C)[C@H](CO)Nc1nc(-c2ccc(F)c(Cl)c2)cnc1N [CBK063949],109.78
23,Cc1c(-c2ccnc(N3CCOCC3)n2)cnc2nc(-c3ccncc3)nn12 [CBK288551],79.4631
24,Cc1csc2c(C3CCCN(C(=O)c4ccnn4C)C3)nc(C)n12 (centres unmarked) [CBK285215],72.3696
25,COc1cccc(CNc2ccc3c4c(cccc24)CC3)c1OC [CBK269688],95.0341
26,COc1cc(CCc2cc(O)n3nc(C)c(-c4ccc(Cl)cc4)c3n2)on1 [CBK285681],78.8665
27,CC1(C)OC(=O)CC1C(=O)N1CCCC(COc2ccccc2F)C1 (centres unmarked) [CBK282098],69.9169

row,Structure (SMILES),% of control remaining
1,COc1cccc(NC(=O)c2ccc(-c3ccsc3)nc2NCC2CC2)c1 [CBK106227],81.9805
2,O=C(CSc1nnc(-c2ccncc2)o1)c1ccccc1 [CBK070562],50.4208
3,O=C(CCn1cnc2ccccc2c1=O)Nc1ccc(S(=O)(=O)N2CCCC2)cc1 [CBK267642],110.018
4,O=c1cccc2n1CC1CC2CN(Cc2cccc(OCc3ccccc3)c2)C1 (centres unmarked) [CBK262426],93.6992
5,COc1ccc(-c2nc3cc(C(C)C)ccc3o2)cc1NC(=O)Cc1ccc(Cl)cc1 [CBK266409],112.846
6,CC(c1nc(N)nc(N(C)C)n1)N(C)CCOc1ccccc1F (centres unmarked) [CBK306053],31.9415
7,COc1ccc(-c2cnc(N)c(N[C@@H](C)c3ccccc3)n2)c(OC)c1OC [CBK063763],116.9
8,CC1CC1C(=O)N(C)C1CCN(c2ncnc3ccccc23)CC1 (centres unmarked) [CBK304972],44.0254
9,CC(=O)Oc1ccc(C(=O)Nc2ccc3c(c2)C(=O)N(CCC(=O)O)C3=O)cc1 [CBK265997],86.2819
10,CC(C)(O)C#Cc1ccc(C(=O)NCCCNC(=O)c2ccc(C#CC(C)(C)O)s2)s1 [CBK267142],119.561
11,COc1ccc(C)cc1S(=O)(=O)N1CCCC(C(=O)NCc2ccccn2)C1 (centres unmarked) [CBK268503],95.1198
12,CC(C)c1nnc(SCc2ccc(CSc3nnc(C(C)C)n3N)cc2)n1N [CBK267911],99.7808
13,Cc1cc2oc(=O)c3c(c2cc1C)CCN(C)C3 [CBK017803],104.375
14,CCCc1[nH]nc(O)c1Cc1c(F)cccc1[N+](=O)[O-] [CBK075029],75.7993
15,O=C1CCc2cc(S(=O)(=O)Nc3ccc(OCc4ccccc4)cc3)ccc2N1 [CBK286365],93.2387
16,Cc1cc(C)cc(NC(=O)N2CCN(c3nccnc3NS(C)(=O)=O)CC2)c1 [CBK048877],93.8504
17,Oc1ccc(-c2n[nH]cc2-c2cnn(-c3ccccc3)c2)c(O)c1O [CBK266948],96.3268
18,COc1cc2c(cc1OC)C(CCN1CCN(c3ccccc3C)CC1)OCC(C)(C)C2 (centres unmarked) [CBK024043C],45.1444
19,N#Cc1c(NC(=O)CSc2nnc(-c3ccc(Cl)cc3)o2)oc(-c2ccccc2)c1-c1ccccc1 [CBK267655],103.596
20,O=C(c1c(F)cccc1F)N1CCCC2(CCN(Cc3ccccc3)C2)C1 (centres unmarked) [CBK136886],66.1303
21,Cc1cc(COc2nc3ccccc3nc2NCCC(C)O)no1 (centres unmarked) [CBK173999],88.3228
22,Clc1ccc(-c2c[nH]c([C@@H]3COCCN3Cc3csnn3)n2)cc1 [CBK289309],102.918
23,Cc1ccc(-c2nccnc2OCCN2C(=O)c3ccccc3C2=O)c(C)c1 [CBK106981],89.3678
24,CC(=O)Nc1ccc(Sc2cnccn2)cc1 [CBK085838],84.9353
25,Cc1n[nH]c(C)c1CCCCCOc1ccccc1 [CBK027211C],83.4297
26,O=C(c1ccncc1)N1C2CCC1CC(O)(c1ccc(F)cc1)C2 (centres unmarked) [CBK283545],115.998
